Source: the supplement of paper PMC10126150
Values marked as one replicate rest on one cluster of the flow cell; about a third of the high ones do not repeat.

Tested on: ATP
Experiment: switch fluorescence ratio, 500 uM ATP over buffer (Cy3 cluster intensity, sum of 5 cycles each) (fold (ratio)); higher = stronger signal-on switching upon ATP binding; sequences stand for … in TCGTCGGCAGCGTCAGATGTGTATAAGAGACAGTTTTTTTTTTTTTTTTTTTTTTTTT…TC
Conditions: aptamer strand: ATP DNA aptamer (quencher-CACCTGGGGGAGTATTGCGGAGGAAGG + anchor), 100 nM annealed; ATP concentration: 500 uM; one replicate
Outline: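 Per cluster, summed Cy3 intensity from the target cycles was divided by that from the buffer cycles to give the fluorescence ratio, then averaged per switch-domain sequence. Clusters outside 100-1000 RFU were excluded. The Cy3-labelled switching-strand clusters, on a modified Illumina MiSeq flow-cell, were annealed to 100 nM quencher-labelled ATP aptamer and imaged in selection buffer, then after 15 min with 500 uM ATP at 22 °C, for five cycles with NaOH stripping and re-annealing between them.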
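Also: ATP exposure 15 min at 22 °C before imaging.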

GCTCGGATAG gave a switch fluorescence ratio of 1.05.

Work on GAGAAGAGAA yielded a switch fluorescence ratio of 0.97.

In the case of TAGGGTCCGT, the switch fluorescence ratio is reported as 1.

GGTGTTAATA showed a switch fluorescence ratio of 1.02.

In the case of CGTTGTGTTG, the switch fluorescence ratio is reported as 0.99.

With ATCTAGTGCC the switch fluorescence ratio was 1.06.

CATTTAAATC showed a switch fluorescence ratio of 0.964.

ATTAATATAA gave a switch fluorescence ratio of 0.976.

GAGCTTGGGA was tested, and the switch fluorescence ratio was 1.01.

With CAGTTCCAGC the switch fluorescence ratio was 1.01.

With TACGACTCAT the switch fluorescence ratio was 1.17.

For ATTCGTCAGA, the switch fluorescence ratio was 0.984.

For ATGGCATATT, the switch fluorescence ratio was 1.01.

ATAGGTGTAT gave a switch fluorescence ratio of 1.02.

AGTAGGGGCA was tested, and the switch fluorescence ratio was 0.999.

AAGAGATGGA gave a switch fluorescence ratio of 1.04.

TCCACCCGTG showed a switch fluorescence ratio of 1.05.

In the case of GGCTTCGGCT, the switch fluorescence ratio is reported as 1.01.

GATGAGGAGT showed a switch fluorescence ratio of 1.01.

ACCAGCAGGT showed a switch fluorescence ratio of 0.998.

Work on CCCGTGTCCT yielded a switch fluorescence ratio of 1.01.

CAGACGTGGT showed a switch fluorescence ratio of 1.05.

TCATCTAGGG showed a switch fluorescence ratio of 1.

TTAGGTCGT showed a switch fluorescence ratio of 0.996.

In the case of ATTCGCGACG, the switch fluorescence ratio is reported as 1.02.

For ATTTACGTC, the switch fluorescence ratio was 1.02.

CCCCACGGGC showed a switch fluorescence ratio of 1.35.

GCCCCTATTC gave a switch fluorescence ratio of 1.04.

GGCTAAAGAT was tested, and the switch fluorescence ratio was 0.995.

In the case of CGCGAAGTTT, the switch fluorescence ratio is reported as 0.968.

ATCTTGATCT showed a switch fluorescence ratio of 1.

TTAAAAGACA gave a switch fluorescence ratio of 1.04.

TACGATTAGG showed a switch fluorescence ratio of 1.01.

With GAGTCACGCA the switch fluorescence ratio was 1.35.

GAGTGGAAG gave a switch fluorescence ratio of 0.972.

In the case of GGGTACGGCA, the switch fluorescence ratio is reported as 1.05.

ACGTGTGCAC gave a switch fluorescence ratio of 0.989.

CCAAGGGTCA was tested, and the switch fluorescence ratio was 1.03.

For TCGACCTCTA, the switch fluorescence ratio was 1.08.

With ACACTACATT the switch fluorescence ratio was 1.26.

Work on CCGATTTAGC yielded a switch fluorescence ratio of 1.24.

Sequence GGTTACCCTC has a switch fluorescence ratio of 1.05.

Work on CATGATCTTC yielded a switch fluorescence ratio of 0.975.

Sequence TGGGAAGTAG has a switch fluorescence ratio of 1.02.

AGAAGAGCG was tested, and the switch fluorescence ratio was 1.02.

ACGCTTTTTA was tested, and the switch fluorescence ratio was 0.992.

TACCGCATTT was tested, and the switch fluorescence ratio was 1.59.

Sequence GGTATACTCT has a switch fluorescence ratio of 1.02.

GCGAAACTTT gave a switch fluorescence ratio of 0.992.

AGCGGGGTGG showed a switch fluorescence ratio of 0.926.

Work on GGATGCAGCG yielded a switch fluorescence ratio of 1.1.

With CCCATCGCTG the switch fluorescence ratio was 1.31.

TTCGCGACAT gave a switch fluorescence ratio of 1.04.

Work on TGGCCCGGCC yielded a switch fluorescence ratio of 0.998.

For AAACCGGCCC, the switch fluorescence ratio was 2.

In the case of CGCGGCCGTG, the switch fluorescence ratio is reported as 0.979.

GATACTAGGC gave a switch fluorescence ratio of 0.997.

Work on TGGCGTGCCG yielded a switch fluorescence ratio of 0.961.

ATAGCTTTCA gave a switch fluorescence ratio of 0.972.

Sequence TGAGAGGATT has a switch fluorescence ratio of 0.999.

GCAGCGCCCG gave a switch fluorescence ratio of 1.

Work on AGATGACTGT yielded a switch fluorescence ratio of 1.06.

TAACTTAGAT gave a switch fluorescence ratio of 0.964.

Sequence GCGTGCTAAC has a switch fluorescence ratio of 1.03.

TCAGGCCCGC was tested, and the switch fluorescence ratio was 1.02.

In the case of TTGGCGGCCG, the switch fluorescence ratio is reported as 1.04.

TGACATGGAG showed a switch fluorescence ratio of 1.

TTCTTGGCGT was tested, and the switch fluorescence ratio was 0.993.

For TCGGGCGGTA, the switch fluorescence ratio was 1.04.

CACGAACGCT was tested, and the switch fluorescence ratio was 1.63.

TCCGCCTAAT was tested, and the switch fluorescence ratio was 2.54.

With GGATCAGATG the switch fluorescence ratio was 0.97.

GCAATAACGG was tested, and the switch fluorescence ratio was 1.99.

For CAAGCTACTA, the switch fluorescence ratio was 1.14.

Work on GTTTTAGTAT yielded a switch fluorescence ratio of 1.03.

TCAGATCTAG showed a switch fluorescence ratio of 1.01.

In the case of TTAGATTTAC, the switch fluorescence ratio is reported as 0.992.

Work on ACGGGCACCG yielded a switch fluorescence ratio of 1.06.

With TCCTCCAAGG the switch fluorescence ratio was 3.8.

TTCGCCTAGT showed a switch fluorescence ratio of 0.994.

Work on TCCCTGAGAG yielded a switch fluorescence ratio of 0.979.

For AGGATTTTAT, the switch fluorescence ratio was 1.03.

For GAGTGTGTA, the switch fluorescence ratio was 0.973.

In the case of TCTTCGACTG, the switch fluorescence ratio is reported as 0.989.

CAAGAGGTTT was tested, and the switch fluorescence ratio was 0.964.

CGATGCTATG gave a switch fluorescence ratio of 1.07.

Work on TCGCATACAA yielded a switch fluorescence ratio of 2.01.

CTACTTTTGA showed a switch fluorescence ratio of 0.963.

Work on AGTATATATA yielded a switch fluorescence ratio of 1.01.

TTATGTATC showed a switch fluorescence ratio of 1.01.

With AACAACCGAC the switch fluorescence ratio was 1.83.

With ATTGAATCAC the switch fluorescence ratio was 1.01.

With ATAGGTCGGA the switch fluorescence ratio was 0.998.

TGAGCAACGT was tested, and the switch fluorescence ratio was 1.5.

In the case of TGCCTTGGCG, the switch fluorescence ratio is reported as 1.

With GATGTGGATA the switch fluorescence ratio was 1.02.

With ATAGTTTGTG the switch fluorescence ratio was 0.978.

Work on CCTTCACGAG yielded a switch fluorescence ratio of 1.32.

With AGGGTGCAGT the switch fluorescence ratio was 1.

With AGTAAATTAG the switch fluorescence ratio was 1.02.

CGCTCCTCTG was tested, and the switch fluorescence ratio was 1.4.

AACGGGGCCT was tested, and the switch fluorescence ratio was 1.05.

GCGCAGTCAC gave a switch fluorescence ratio of 2.12.

For GTTCTCCACA, the switch fluorescence ratio was 1.01.

With CAGGTTCGAG the switch fluorescence ratio was 1.

CCCATTGGCT gave a switch fluorescence ratio of 1.02.

ACCAAAACAG showed a switch fluorescence ratio of 1.09.

For TCTGTGGAGA, the switch fluorescence ratio was 1.02.

AGTAATCGGT was tested, and the switch fluorescence ratio was 0.964.

Work on CGGTGATGCA yielded a switch fluorescence ratio of 1.07.

In the case of CCCTGATTTC, the switch fluorescence ratio is reported as 1.

Work on AAAAACGTTC yielded a switch fluorescence ratio of 1.04.

In the case of TAGCGATAT, the switch fluorescence ratio is reported as 1.65.

With CGTAGGGGAG the switch fluorescence ratio was 0.955.

TCCTGTTAAT gave a switch fluorescence ratio of 0.895.

For AACACATTAA, the switch fluorescence ratio was 1.03.

With CCTAGGGTGC the switch fluorescence ratio was 2.47.

CGGTAGGTTC was tested, and the switch fluorescence ratio was 1.02.

In the case of GCCTAGCGAC, the switch fluorescence ratio is reported as 1.13.

Work on GGTCCAGGT yielded a switch fluorescence ratio of 1.22.

CGGATACGAA was tested, and the switch fluorescence ratio was 1.04.

Sequence CACTGATGAT has a switch fluorescence ratio of 1.01.

Work on TACGCCAGAT yielded a switch fluorescence ratio of 1.09.

Sequence CCAGAAAGGT has a switch fluorescence ratio of 1.03.

Sequence AATTGAGACT has a switch fluorescence ratio of 1.03.

With GAGAGTAGGA the switch fluorescence ratio was 1.01.

CTCCCGATTG was tested, and the switch fluorescence ratio was 1.35.

In the case of ATGAGCATAT, the switch fluorescence ratio is reported as 1.17.

Work on CGAACAGGCT yielded a switch fluorescence ratio of 1.03.

GACTGCGAGT showed a switch fluorescence ratio of 1.02.

In the case of GTTCAAATTT, the switch fluorescence ratio is reported as 0.996.

In the case of GAAGTATTTG, the switch fluorescence ratio is reported as 0.95.

Work on TCGCTTGGC yielded a switch fluorescence ratio of 1.05.

ATAGTGTAGG gave a switch fluorescence ratio of 0.999.

In the case of CTAGAGCGGG, the switch fluorescence ratio is reported as 1.05.

In the case of TGAGTACAC, the switch fluorescence ratio is reported as 0.978.

For GTTGGACTCA, the switch fluorescence ratio was 1.03.

With CTGGTCCCGC the switch fluorescence ratio was 1.05.

AGCTATAAAG was tested, and the switch fluorescence ratio was 1.04.

Sequence TAATAAGAAC has a switch fluorescence ratio of 0.978.

In the case of ACCGGTGTTG, the switch fluorescence ratio is reported as 1.04.

Work on CGTCCTGCTG yielded a switch fluorescence ratio of 0.906.

For CTTTAGGCTG, the switch fluorescence ratio was 0.947.

In the case of CTTTTAGGTT, the switch fluorescence ratio is reported as 0.946.

Work on AGTTGCAATC yielded a switch fluorescence ratio of 1.9.

With GACACGGAGC the switch fluorescence ratio was 1.12.

GAGAATTTCA gave a switch fluorescence ratio of 0.968.

Sequence AAGGCGTAAC has a switch fluorescence ratio of 0.95.

For GGCGCAGGTG, the switch fluorescence ratio was 2.97.

With GGAATTATGG the switch fluorescence ratio was 0.943.

Work on CGGTTTACGC yielded a switch fluorescence ratio of 0.945.

AAGTAACGTA showed a switch fluorescence ratio of 1.08.

Sequence AGATTGTGTA has a switch fluorescence ratio of 1.01.
